Source: PubChem BioAssay AID488969 (Vanderbilt High Throughput Screening Facility, 2010)
In all, about 110,000 compounds were measured (“z-score”: median about -0.1, highest 2% from about 2 on). This is one part of the list. Activity calls are given as the source filed them.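 How the source made its calls: active means z-score in the third read window above 3 or below -3; inactive means the rest.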

Biological target: Metabotropic glutamate receptor 8 (Rattus norvegicus) (UniProt P70579)
Assay: mGluR8 Gi/Go-coupled signaling modulation – cell-based, rat, thallium flux, HTS, primary screen (AID 488969)
Conditions: HEK293 rat mGluR8, GIRK (G protein-gated inwardly rectifying potassium channel) thallium flux, FluoZin2; at 10 µM; stronger effect = higher value; submaximal glutamate (EC20) added with thallium

Chain of UniProt P70579 (P70579 whole entry, looked up): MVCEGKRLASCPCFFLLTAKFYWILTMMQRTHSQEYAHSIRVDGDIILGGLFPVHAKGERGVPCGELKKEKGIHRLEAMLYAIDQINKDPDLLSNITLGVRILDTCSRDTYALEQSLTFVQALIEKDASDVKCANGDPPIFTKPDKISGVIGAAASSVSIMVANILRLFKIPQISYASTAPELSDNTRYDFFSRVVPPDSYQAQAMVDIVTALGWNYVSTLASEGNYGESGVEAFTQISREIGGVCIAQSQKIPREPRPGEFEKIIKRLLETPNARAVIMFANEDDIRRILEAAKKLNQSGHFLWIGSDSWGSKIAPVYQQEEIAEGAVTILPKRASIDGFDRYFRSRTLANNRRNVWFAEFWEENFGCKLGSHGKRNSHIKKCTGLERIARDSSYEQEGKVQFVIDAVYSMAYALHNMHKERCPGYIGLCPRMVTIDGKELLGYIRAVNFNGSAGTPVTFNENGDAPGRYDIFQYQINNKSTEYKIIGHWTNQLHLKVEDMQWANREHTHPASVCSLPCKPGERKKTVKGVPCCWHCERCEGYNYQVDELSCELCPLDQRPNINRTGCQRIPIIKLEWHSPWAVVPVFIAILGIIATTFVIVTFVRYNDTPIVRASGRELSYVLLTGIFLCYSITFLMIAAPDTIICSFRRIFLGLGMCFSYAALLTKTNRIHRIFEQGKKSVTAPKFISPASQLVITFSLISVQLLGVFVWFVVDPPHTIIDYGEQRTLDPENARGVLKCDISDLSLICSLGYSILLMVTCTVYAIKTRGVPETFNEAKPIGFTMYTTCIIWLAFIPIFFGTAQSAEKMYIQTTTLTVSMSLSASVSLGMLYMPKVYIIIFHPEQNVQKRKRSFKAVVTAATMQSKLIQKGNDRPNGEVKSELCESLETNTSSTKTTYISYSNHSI

Row | SMILES | z-score
1 | COc1cnc(SCc2ccc(Cl)cc2Cl)nc1Cl | -0.177
2 | O=C(NC12CC3CC(CC(C3)C1)C2)N1CCN(c2ccccn2)CC1 | -0.264
3 | COc1c(C(=O)NCCSC(C)(C)C)ccc2ccccc12 | -0.145
4 | CC1CC(C)CN(C(=S)Nc2ccc(SC(F)F)cc2)C1 (stereo unspecified) | active: 6.63
5 | COC(=O)[C@H](CCSC)NC(=O)NCCc1ccc(F)cc1 | -0.248
6 | O=C(CSc1nc2ccccc2o1)Nc1nc2ccccc2s1 | -0.205
7 | CC(Cc1c[nH]c2ccccc12)NC(=O)C1CCCNC1=O (stereo unspecified) | -0.0293
8 | Nc1ccc(C(=O)Nc2ccc3nc(-c4cccnc4)[nH]c3c2)cc1 | -0.0375
9 | O=C(COC(=O)/C=C/c1ccc([N+](=O)[O-])cc1)NC(c1ccccc1)c1ccccc1 | 0.0953
10 | O=C1/C(=C/c2ccc(C(=O)O)cc2)CCC/C1=C\c1ccc(C(=O)O)cc1 | 0.0249
11 | O=C(NCCN1CCN(Cc2ccccc2Cl)CC1)Nc1ccccc1 | -0.181
12 | Cc1ccc(-c2nc3ncccc3o2)cc1NC(=O)c1cc2ccccc2o1 | -0.0428
13 | CCOC(=O)N1CCC(NC(=O)C2CCN(C(=O)N3CC(C)Oc4ccccc43)CC2)CC1 (stereo unspecified) | -0.46
14 | CNC(=O)CN1C(=O)c2ccccc2S1(=O)=O | 0.0727
15 | O=C(N/N=C/c1ccccc1Br)c1ccc(CSc2cccc3cccnc23)cc1 | 0.394
16 | O=C(CCn1c(=O)sc2ccccc21)Nc1cccnc1 | -0.18

Row | SMILES | z-score
17 | Cc1sc2ncnc(OCC(=O)c3ccc(S(=O)(=O)N4CCCC4)cc3)c2c1C | -0.168
18 | CCCN(CC1CC1)c1nc(N)c2c(N)nc(OC)cc2c1C#N | -0.104
19 | CCN1CCN(c2oc(-c3ccc(OC)cc3)nc2C#N)CC1 | 0.225
20 | CCn1nnnc1SCC(=O)Nc1nnc(C(C)C)s1 | 0.188
21 | CC(C)N(C(=O)COC(=O)c1ccccc1C(=O)N1CCN(c2ccc(F)cc2)CC1)C(C)C | 0.192
22 | COc1ccc(-c2cc3nc(C)c(CCC(=O)NC(C)CCc4ccco4)c(C)n3n2)c(OC)c1 (stereo unspecified) | -0.467
23 | O=C(c1ccccc1)N1CCCC(c2ccc(Cl)cc2)=N1 | -0.439
24 | CCn1nc(C)cc1-c1n[nH]c(=S)n1N | -0.258
25 | O=S(=O)(NCc1ccc2c(c1)OCO2)c1cnc[nH]1 | 0.285
26 | O=C(c1cccs1)N1CCN(C(=O)C2CCCO2)CC1 (stereo unspecified) | -0.53
27 | CCOc1ccc(C(=O)NC2CCN(C(=O)N3CCCC3)CC2)cc1 | 0.0864
28 | COc1ccccc1-c1nnn(C/C(N)=N/O)n1 | -0.288
29 | COC(=O)C1=C(C)Nc2ccc(C)cc2S1 | -1.05
30 | Cc1cccc(C(=O)Nc2cccc(C(=O)N/N=C/c3ccncc3)c2)c1 | 0.416
31 | O=C(Cc1coc2ccc3ccccc3c12)NC1CCCc2ccccc21 (stereo unspecified) | -0.181
